In the GPR68 mutational scans of Howard et al. (2025):

B1: GPR68, Q15743 (parent)
chain: MGNITADNSSMSCTIDHTIHQTLAPVVYVTVLVVGFPANCLSLYFGYLQIKARNELGVYLCNLTVADLFYICSLPFWLQYVLQHDNWSHGDLSCQVCGILLYENIYISVGFLCCISVDRYLAVAHPFRFHQFRTLKAAVGVSVVIWAKELLTSIYFLMHEEVIEDENQHRVCFEHYPIQAWQRAINYYRFLVGFLFPICLLLASYQGILRAVRRSHGTQKSRKDQIQRLVLSTVVIFLACFLPYHVLLLVRSVWEASCDFAKGVFNAYHFSLLLTSFNCVADPVLYCFVSETTHRDLARLRGACLAFLTCSRTGRAREAYPLGAPEASGKSGAQGEEPELLTKLHPAFQTPNSPGSGGFPTGRLA

Columns and labels:
[1] = variants of: B1; test: cAMP reporter score (Enrich2 score, wild type = 0); higher = more signal; HEK293T, FACS bins
[2] = variants of: B1; test: surface expression score (Enrich2 score, wild type = 0); higher = more signal; HEK293T, FACS bins

Variant	cAMP reporter score ([1]; pH 5.5)	cAMP reporter score ([1]; pH 6)	cAMP reporter score ([1]; pH 6, modulator: ogerin)	cAMP reporter score ([1]; pH 6.5, modulator: ogerin)	surface expression score [2]
G323_A324insG	-1.02	0.165	-0.358	0.37	-0.261
E326_A327insGS	1.45	0.671	1.35	1.55	2.66
G314_R315insGS	0.961	1.07	0.964	1.05	1.01
G329F	-0.202	-0.239	-0.605	-0.858	-0.522
G329E	0.578		1.03	2.08	1.32
G329C	0.519	0.879	1.12	0.205	0.059
G329D	-0.771	-0.216	-0.737	-0.693	-0.186
G329A	1.9	0.718	1.76	0.842	0.645
G329H	-0.045	-0.34	0.356	-0.316	-0.245
G329I	1.13	0.803	1.27	1.32	-0.16
R315_R317del	1.13	0.66	0.687	1.36	0.607
P325_E326del	-0.214	-0.443	0.087	-0.384	-0.542
E326_A327insGSG	1.08	1.3	1.87	2	1.68
G314_R315insGSG	0.169	-0.055	0.251	0.341	0.382
E318_Y320del	1.33	0.124	1.03	0.734	0.344
E318_A319del	0.612	-0.253	0.173	0.219	-0.128
E318_A319insGSG	1.36	1.19	1.17	1.81	1.11
A324R	0.649	0.771	0.915	1.22	0.071
A324Q	0.827		1.29	1.19	1.05
A324T	0.159	0.124	0.088	0.004	0.216
A324M	1.31	0.488	1.85	1.25	1.38
A324Y	-0.241	0.724	0.576	0.264	0.074
A324E	0.379	0.09	0.492	-0.312	0.307
A324C	0.382		-0.669	0.602	
A324V	0.364	0.692	0.649	0.569	0.347
A324S	-0.179	-0.702	1.29		

Variant	cAMP reporter score ([1]; pH 5.5)	cAMP reporter score ([1]; pH 6)	cAMP reporter score ([1]; pH 6, modulator: ogerin)	cAMP reporter score ([1]; pH 6.5, modulator: ogerin)	surface expression score [2]
A324P	2.73	2.06		0.618	3.6
A324H	0.238	0.928	0.793	-0.531	-0.098
A324F	0.718	-0.032	0.593	0.088	-0.143
A324I	-0.129	0.664	0.546	0.353	-0.122
A324L	0.565	-0.327	0.509	0.241	-0.034
A324K	0.682	0.686	0.983	0.523	0.51
A324G	1	-0.468	1.24	1.28	1.21
A324D	-0.64	0.028	-0.789	0.343	-0.173
A324W	1.84	0.175	1.77	1.68	0.358
A324N	0.478	0.702	2.2	1.84	1.11
A324_P325del	0.141	0.357	0.576	0.534	0.43
A319F	-0.347	-1.17	-0.927	-1.45	-1.03
A319N	-0.12	0.637	-0.699	-0.208	-0.056
A319K	0.981	0.867	0.301	1.43	
A319Q	-0.455	0.029	0.49	-0.163	-0.098
A319I	0.776		0.046	-0.324	-0.116
A319C	-0.344	-0.469	0.024	-0.109	0.566
A319M	0.604	0.704	1.35	0.78	0.45
A319D	0.505	-0.18	0.569	1.17	0.618
A319T	0.493	-1.05	0.278	0.183	0.472
A319P	0.349	0.583	0.523	0.516	0.107
A319Y	-0.196	-0.945	-1.43	-0.991	-1.64
A319V	0.487	-0.348	0.581		0.891
A319W	0.303	-0.787	-0.281	-0.427	
A319R	0.451	0.359	0.411	0.258	-0.253
A319L	0.342	-0.559	0.689	0.533	-0.066

Variant	cAMP reporter score ([1]; pH 5.5)	cAMP reporter score ([1]; pH 6)	cAMP reporter score ([1]; pH 6, modulator: ogerin)	cAMP reporter score ([1]; pH 6.5, modulator: ogerin)	surface expression score [2]
A319H	0.977	-0.056	0.161	1.33	
A319E	0.193		0.339	0.436	0.102
R315_A316insGSG	0.668	0.118	0.6	1.39	1.01
A316_E318del	0.599	-0.585	0.401	0.04	-0.335
S328_G329insGS	0.728	0.838	0.781	0.676	0.568
G314_A316del	-0.264	-0.392	-0.595	-0.144	-0.932
A324_E326del	0.505	-0.582	0.357	-0.441	-0.492
P325del	0.777	0.65	1.55	1.95	0.262
A327_S328insGSG	0.977	0.781	1.3	1.52	1.45
A316_R317insGSG	1.61	1.05	1.44	1.68	0.901
G323_P325del	0.37	0.354	0.423	0.628	0.02
P321del	1.3	0.247	1.14	1.03	0.053
A327_S328insGS	1.05	0.907	1.03	1.07	1.09
A319del	0.568	0.699	0.909	0.784	1.14
G323_A324del	0.884	0.3	0.998	0.758	-0.239
P325_E326insGSG	1.35		0.628	1.46	1.76
R317M	-0.42	0.381		0.842	-0.155
R317E	0.362	-0.723	0.601	-0.612	0.405
R317A	0.784	2.83		2.04	1.12
R317N	0.113	0.321	0.106	0.252	0.506
R317S	1.29	1.36	1.21	0.865	0.543
R317I	0.491	-0.236	0.577	0.196	-0.399
R317W	1.68		1.34	0.732	0.008
R317C	-1.14	-0.697	-1.42	-0.924	-0.749
R317G	0.311	-0.638	0.153	-0.274	0.381
R317T	0.071	0.227	0.92	0.192	0.535

Variant	cAMP reporter score ([1]; pH 5.5)	cAMP reporter score ([1]; pH 6)	cAMP reporter score ([1]; pH 6, modulator: ogerin)	cAMP reporter score ([1]; pH 6.5, modulator: ogerin)	surface expression score [2]
R317V	0.109	-0.041	0.394	0.029	-0.237
R317D	-0.494	-1.02	-0.178	-0.181	0.266
R317H	0.731	-0.755	0.053	-0.277	0.09
R317P	1.44	1.55	2.67	0.246	1.84
R317K	-0.482	1.94	0.321	0.508	-0.419
R317F	0.925		-0.392		-1.28
R317L	1.15	-0.36	1.42	0.743	0.81
R317Q	0.349	1.91	0.71	0.931	1.5
R317Y	-0.711	-1.08	-1.01	-1.03	-2.15
P321_L322insGSG	0.319	0.106	1.27	0.342	0.971
G323del	0.899		0.669	1.12	0.273
A327_S328insG	1.55	0.365	0.566	1.25	0.888
Y320_L322del	0.775	0.359	0.851		1.4
L322del	-1.12		-0.6	1.08	1.26
P321_L322insG	0.644	-0.197	0.697	-0.262	0.568
A319_Y320insGSG	0.646	1.18	0.906	0.372	0.396
A316M	1.5	0.699	1.53	0.919	0.602
A316D	0.596	-0.336	0.855		1.08
A316H	-0.094	-0.596	-0.209	-0.015	-0.224
A316P	0.337		0.657	2.23	1.42
A316N	0.026	-0.128	0.328	-0.054	0.522
A316Q	-0.76		0.229	-0.313	0.523
A316C	-0.398	-0.593	-0.641	-0.415	-0.453
A316W	-0.094		0.822	0.687	0.614
A316L	0.825	0.217	0.703	-0.131	0.205
A316G	0.611	0.519	1.04	0.746	1.18

Variant	cAMP reporter score ([1]; pH 5.5)	cAMP reporter score ([1]; pH 6)	cAMP reporter score ([1]; pH 6, modulator: ogerin)	cAMP reporter score ([1]; pH 6.5, modulator: ogerin)	surface expression score [2]
A316I	0.912		0.886	0.823	1.4
A316E	0.067	0.11	0.193	-0.024	-0.055
A316Y	1.06	-0.332	0.965	0.121	-0.181
A316S	0.052	0.523	0.399	0.426	0.152
A316V	-0.394	-0.515	-0.447	-0.358	-0.057
A316K	2.21		1.99	2.3	1.1
A316T	0.495		0.911	0.533	0.311
A316R	1.08	-0.052	0.506	0.866	1.17
A316F	0.284	-0.217	0.393	-0.033	0.105
G314Q	0.632	1.54	1.19	-0.193	0.154
G314T	0.454	0.931	0.22	-0.258	0.064
G314K	-0.692			0.635	0.859
G314Y	0.711	0.413	0.848	0.173	0.148
G314M	0.347	-0.795	0.695	-0.611	-0.062
G314W	-0.072	-0.109	0.264	0.473	-0.048
G314R	0.107		0.77	-0.18	0.794
G314S	-0.059	0.501	0.129	0.724	0.586
G314L	0.362	-0.522	1.2	-0.493	-1.78
G314N	-0.485	-0.906	0.027	-0.253	0.568
G314P	0.272	0.886	0.977	1.78	1.34
G314V	0.378	-0.882	0.231	-0.153	0.283
A316del	-0.967		-0.163	-0.056	-0.451

Scores with a large standard error are left out. Two further conditions of the source, in which the scores hardly spread, are not listed. Read del as a deletion of the residues named and ins as an insertion between two positions. For part of these data: How much ogerin was present is not stated here.
